Measurements taken from PMC4336329 (PLoS ONE, 2015).
About 2,200 (0.71%) of roughly 310,000 compounds showed an effect of 50% or more. Effects have a minus sign here. The list shows a part of the results.

Target: human ether-à-go-go-related gene (hERG) potassium channel (human, UniProt Q12809)
Experiment: primary screen, population patch clamp on CHO cells stably expressing hERG

Sequence of human ether-à-go-go-related gene (hERG) potassium channel (Q12809 whole entry, looked up): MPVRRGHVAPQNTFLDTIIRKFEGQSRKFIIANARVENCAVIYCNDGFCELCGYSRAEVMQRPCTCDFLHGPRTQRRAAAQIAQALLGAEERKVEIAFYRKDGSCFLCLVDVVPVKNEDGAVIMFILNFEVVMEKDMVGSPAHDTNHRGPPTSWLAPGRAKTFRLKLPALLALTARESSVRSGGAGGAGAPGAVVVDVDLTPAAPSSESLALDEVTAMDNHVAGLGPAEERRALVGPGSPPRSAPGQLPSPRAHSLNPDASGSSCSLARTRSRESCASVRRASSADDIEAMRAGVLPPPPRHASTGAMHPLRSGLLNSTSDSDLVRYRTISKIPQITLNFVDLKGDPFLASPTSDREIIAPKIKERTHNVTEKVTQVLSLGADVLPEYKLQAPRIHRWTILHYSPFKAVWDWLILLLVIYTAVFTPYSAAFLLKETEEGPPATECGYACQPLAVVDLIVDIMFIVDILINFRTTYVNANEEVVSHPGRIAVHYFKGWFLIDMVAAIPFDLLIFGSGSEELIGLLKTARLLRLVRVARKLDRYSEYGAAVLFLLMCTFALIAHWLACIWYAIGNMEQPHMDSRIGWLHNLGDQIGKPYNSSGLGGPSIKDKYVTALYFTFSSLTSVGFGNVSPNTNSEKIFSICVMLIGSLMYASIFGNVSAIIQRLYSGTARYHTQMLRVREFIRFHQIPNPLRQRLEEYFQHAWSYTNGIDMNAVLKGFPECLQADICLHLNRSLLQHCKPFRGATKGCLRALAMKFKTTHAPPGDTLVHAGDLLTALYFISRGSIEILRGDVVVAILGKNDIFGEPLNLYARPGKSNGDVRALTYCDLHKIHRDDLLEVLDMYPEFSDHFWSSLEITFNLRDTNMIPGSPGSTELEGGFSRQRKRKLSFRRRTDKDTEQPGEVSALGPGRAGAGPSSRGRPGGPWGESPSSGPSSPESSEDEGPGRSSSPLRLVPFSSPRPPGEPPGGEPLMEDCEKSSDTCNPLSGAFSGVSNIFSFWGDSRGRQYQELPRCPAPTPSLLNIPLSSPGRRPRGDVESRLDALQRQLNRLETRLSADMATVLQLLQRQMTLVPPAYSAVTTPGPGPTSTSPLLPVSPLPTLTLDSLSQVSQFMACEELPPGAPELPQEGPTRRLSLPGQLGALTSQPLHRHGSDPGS

| SMILES | hERG current change (%, negative = inhibition) at 1uM [%] |
| --- | --- |
| O=C1CC2(CCN(C(=O)c3ccccc3[N+](=O)[O-])CC2)Oc2ccccc21 | -19 |
| O=C(CSc1nc2ccccc2[nH]1)c1ccc2c(c1)OCO2 | 6.72 |
| Cc1nc(N)nc(SCc2ccc([N+](=O)[O-])cc2)c1N | -70.8 |
| CCCCCCOC(=O)C[N+](C)(C)CCOC1CC2CCC1(C)C2(C)C.[Cl-] (stereo not drawn) | -69 |
| N#Cc1ccc(-c2ccccc2)nc1SCC(=O)c1cccc(Cl)c1 | 19.4 |
| CC1CN(CCOc2ccc(F)cc2)CC(C)O1.O=C(O)C(=O)O (stereo not drawn) | 23.1 |
| Cc1nc(SCC(=O)Nc2c(C)n(C)n(-c3ccccc3)c2=O)n[nH]1 | 9.7 |
| CCc1nc(SCC(=O)NNC(=O)c2ccc(OC)cc2)c2ccccc2n1 | 3.74 |
| O=C(Cc1ccc(Cl)cc1)Nc1cccc(C(=O)Nc2ccccc2C(=O)O)c1 | 14.6 |
| Cc1nnc(OC(C)C)c2nn(-c3ccccc3F)c(C)c12 | 5.1 |
| COc1ccc(-n2ncc3c(NCCCN4CCOCC4)ncnc32)cc1 | 7.9 |
| CCN1/C(=C/C=C/c2oc3ccc(-c4ccccc4)cc3[n+]2CC)Oc2ccc(-c3ccccc3)cc21.CCOS(=O)(=O)[O-] | -2.56 |
| CCOC(=O)c1c(-c2ccccc2)nnn1-c1nc(OC)nc(N2CCOCC2)n1 | -3.86 |
| CCN(Cc1cc(=O)n2ccsc2n1)Cc1nc2cc(OC)c(OC)cc2c(=O)[nH]1 | 6.28 |
| COC(=O)c1ccccc1NC(=O)Cn1c(CCC(=O)O)ccc1-c1cccs1 | 17.6 |
| CCOC(=O)c1c(NC(=O)C(F)(OC)C(F)(F)F)sc(C(=O)N2CCCCC2)c1C (stereo not drawn) | 4.04 |
| O=C(CS(=O)(=O)Cc1ccccc1)Nc1ccccc1Cl | 2.86 |
| N[C@H]1CONC1=O | 15.2 |
| CN(NC(=O)/C=C/C(=O)O)c1ncc(C(F)(F)F)cc1Cl | 4.18 |
| Nc1ccc2c(c1)C(=O)c1ccccc1C2=O | 17 |
| CN(C)CCOC(=O)CCc1ccccc1.Cl | 4.63 |

| SMILES | hERG current change (%, negative = inhibition) at 1uM [%] |
| --- | --- |
| O=C(Nc1cccc(F)c1)C1CCCN(S(=O)(=O)c2ccccc2)C1 (stereo not drawn) | 16.6 |
| O=C(Nc1nc(-c2ccccn2)cs1)c1ccc(Cl)s1 | 9.8 |
| COc1cccc(N/C(N)=N/c2nc(C(F)(F)F)cc(C(F)(F)F)n2)c1 | 4.65 |
| Cc1ccc(S(=O)(=O)Nc2cccc(C(=O)NCCCN3CCOCC3)c2)cc1F | -3.66 |
| COc1ccc(-c2cc(C(=O)NCCc3ccc(S(N)(=O)=O)cc3)c3ccccc3n2)cc1 | 11.6 |
| O=C(C1=C[C@@H](c2coc3ccccc3c2=O)C[C@@H](OCc2ccc(CO)cc2)O1)N1CCCCCCC1 | -7.57 |
| Cc1ccc(C(=O)Nc2ccc(C(=O)/C=C/c3cccs3)cc2)cc1 | 12.1 |
| O=C(Nc1ccc(-c2nc3ccccc3c(=O)o2)cc1)c1ccco1 | 3.85 |
| N#Cc1c(/N=C/c2cccs2)sc2c1CCCCC2 | -3.37 |
| COC(=O)c1cc2c(ccn2-c2ccc(F)cc2)n1Cc1ccc(OC(C)=O)cc1 | 11.2 |
| O=C(Cc1ccccc1)NNc1c2ccccc2nc2ccccc12 | 10.4 |
| CCOC(=O)c1cc2c(=O)n3ccccc3nc2n(CC(C)C)c1=NC(=O)c1c(-c2c(F)cccc2Cl)noc1C | 9.22 |
| CC(Sc1nnc(NCc2ccccc2)s1)C(=O)Nc1ccc2c(c1)C(=O)c1ccccc1C2=O (stereo not drawn) | 15.4 |
| O=c1c[n+]([O-])c2ccccc2n1OCc1c(F)cccc1F | 8.5 |
| O=C(CCc1ccc(S(=O)(=O)N2CCOCC2)cc1)N1CCc2ccccc2C1 | -8.69 |
| O=S(=O)(Nc1ccc2c(c1)OCO2)c1ccc(Cl)cc1F | -2.54 |
| COC(=O)c1sccc1NC(=O)CSc1ccccc1NS(=O)(=O)c1ccc(F)cc1 | 7.96 |
| Cc1[nH]nc(S(=O)CC(=O)O)c1[N+](=O)[O-] (stereo not drawn) | 19.8 |
| COc1cc(/C=C/C(=O)NCc2nc3ccccc3[nH]2)cc(OC)c1OC | 13.9 |
| COc1ccc(S(=O)(=O)CCC(=O)Nc2ccc(OC)cc2OC)cc1 | -0.708 |
| Cn1c(=O)c2ncn(CC(=O)N=Nc3c(O)[nH]c4ccccc34)c2n(C)c1=O | 16.9 |
